Results reported in PubChem BioAssay AID1030 (National Center for Advancing Translational Sciences (NCATS), 2008).
“And” between values parts separate entries of the source, which are not always exact repeats. Identical values can stand only once. About 16,000 (7.3%) of roughly 220,000 compounds were called active. Inconclusive means that the source gave no clear call. Such entries were picked first, then a sample of the others. Calls follow the shape of the dose curve; as a rule, active = well fitted inhibition curve with a large enough effect (not every such curve was filed as active); inconclusive = small, poorly fitted or top-dose-only effect, or another doubt; inactive = no such curve, though single readings can be large or run the other way. No potency is given beside an inconclusive call; the fits are too rough. The source holds several records for some structures; these can differ, active in one and inactive in another.

Biological target: Aldehyde dehydrogenase 1A1 (Homo sapiens) (UniProt P00352)
Experiment: qHTS Assay for Inhibitors of Aldehyde Dehydrogenase 1 (ALDH1A1);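 as to activity, negative = inhibition: plate controls were no enzyme wells and a reference inhibitor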
Details: Purified ALDH1A1, NADH fluorescence, propionaldehyde substrate; series mostly up to 75.3 µM; activity, negative = inhibition: at the top concentration
Potency is read from the fitted curve at half-maximal effect; tags tell the direction and shape of the fitted curve.

Chain of UniProt P00352 (P00352 whole entry, looked up): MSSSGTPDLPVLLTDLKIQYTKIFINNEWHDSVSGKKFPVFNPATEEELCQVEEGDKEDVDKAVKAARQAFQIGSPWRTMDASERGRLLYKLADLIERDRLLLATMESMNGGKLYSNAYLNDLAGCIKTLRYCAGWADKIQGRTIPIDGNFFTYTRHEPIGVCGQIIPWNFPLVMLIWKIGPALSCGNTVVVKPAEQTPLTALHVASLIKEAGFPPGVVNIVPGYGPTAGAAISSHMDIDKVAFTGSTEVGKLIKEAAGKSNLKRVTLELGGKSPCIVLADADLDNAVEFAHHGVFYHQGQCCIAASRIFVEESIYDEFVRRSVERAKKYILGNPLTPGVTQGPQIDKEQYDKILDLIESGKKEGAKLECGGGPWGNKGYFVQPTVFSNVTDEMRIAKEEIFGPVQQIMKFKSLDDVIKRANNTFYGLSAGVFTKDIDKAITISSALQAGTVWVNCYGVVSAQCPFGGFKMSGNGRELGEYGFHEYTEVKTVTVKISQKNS

Structure (SMILES) | Potency | activity, negative = inhibition
O=C(COc1ccc2ccccc2c1)N1CCN(CC2CC3C=CC2C3)CC1 (stereo unspecified) | inconclusive [inhibitor, single point] | 
CCC(=NCCOc1ccc(Cl)cc1)c1c(O)n(C)c(=O)n(C)c1=O |  | inactive: 4.23%
CCOCCSc1nc2c(c(-c3cccs3)c1C#N)CC/C2=C/c1cccs1 | inconclusive [inhibitor, partial curve] | 
c1nc[nH]n1 |  | inactive: 1.16%
C=CCn1c(O)c(C(CC)=NCCc2ccccc2)c(=O)[nH]c1=O |  | inactive: -1.04%
c1ccc2c(c1)-c1cccc3c1c-2cc1ccccc13 | inconclusive [inhibitor, partial curve] | 
OCCCc1ccc(O)c(O)c1 | inconclusive [inhibitor, single point] | 
Cc1cc(C)cc(N2C(=O)NC(=O)/C(=C\c3cccn3-c3ccccc3)C2=O)c1 |  | inactive: -7.54%
c1csc(CN2CCCC3(CCNCC3)C2)n1 | inconclusive [inhibitor, single point] | 
CCC(C)=O | inconclusive [inhibitor, single point] | 
COc1ccc(-n2c(SCC(=O)c3c(N)n(C)c(=O)n(C)c3=O)nc3ccccc32)cc1 | inconclusive [inhibitor, single point] | 
C[N+]1(C)CCOC(O)(c2ccc(-c3ccc(C4(O)C[N+](C)(C)CCO4)cc3)cc2)C1 (stereo unspecified) | inactive and active: 14.1 µM | 
CC(=O)[O-].CC(=O)[O-].O.O.O.[Pb+2] | active: 15 µM | 
CC(=NCc1ccco1)c1c(O)n(-c2ccccc2)c(=O)[nH]c1=O | inconclusive [inhibitor, single point] | 
Cc1ccc(N2C(=O)NC(=O)/C(=C/c3ccc(-c4ccc(C(=O)O)c(Cl)c4)o3)C2=O)cc1 | inconclusive [inhibitor, partial curve] | 
[Cd+2].[Cl-].[Cl-] | active: 3.98 µM | 
Cc1ccccc1N1C(=O)NC(=O)/C(=C\c2cnn(-c3ccccc3)c2)C1=O | active: 17.8 µM | 
O=Cc1cn(Cc2ccc(F)cc2Cl)c2ccccc12 | active: 3.16 µM | 
CCN(CC)c1ccc(/C=C2\C(=O)NC(=O)N(Cc3ccco3)C2=O)cc1 | active: 0.501 µM | 
O=C(O)c1cccc([As]=[As]c2cccc(C(=O)O)c2)c1 (stereo unspecified) |  | inactive: -7.4% [at 13.5 µM]
COc1cc2c(cc1O)C(CCc1ccc(Cl)cc1)N(C)CC2 (stereo unspecified) |  | inactive: -4.67%
O=C(O)CC/C(=C\c1cc([N+](=O)[O-])ccc1Cl)c1nc2ccccc2s1 | inconclusive [inhibitor, single point] | 
CC(C)CCCn1c(O)c(/C=C2/C=CC=N2)c(=O)[nH]c1=O | inconclusive [inhibitor, single point] | 
O=C1NC(=S)NC(=O)C1=Cc1cccc2cc3ccccc3cc12 | inconclusive [inhibitor, single point] | inactive: 10.7% [at 13.5 µM]
Cc1ccc(N2C(=O)NC(=O)/C(=C\C=C\c3ccco3)C2=O)cc1C | inconclusive [inhibitor, single point] | 
CCC#N | inconclusive [inhibitor, single point] | 
CC/C(=N\Nc1ccccc1)c1c(O)n(C)c(=O)n(C)c1=O | inconclusive [inhibitor, partial curve, poor fit] | 
O=C1c2ccccc2C(=O)N1SC1CCCCC1 | active: 1.41 µM | 

Structure (SMILES) | Potency | activity, negative = inhibition
COc1ccccc1CN1CCCC2(CCN(C(=O)Oc3ccccc3)CC2)C1 |  | inactive: -9.9%
COC(=O)C(O)(c1ccc(NC(=O)Oc2ccccc2)cc1)C(F)(F)F (stereo unspecified) | inconclusive [inhibitor, single point] | 
O=c1c2ccccc2nc(-c2ccoc2)n1-c1ccccc1 | inconclusive [inhibitor, partial curve] | 
COc1cc(C=C(C#N)C#N)cc(O)c1O | active: 31.6 µM | 
CCN1C(=O)/C(=C/c2ccc(N(CC)CC)cc2OC)C(=O)NC1=S | active: 10 µM | 
CCCCC(=O)N/N=C/c1c(O)n(CC)c(=S)[nH]c1=O |  | inactive: -6.96%
O=c1[nH]c(=O)n(C2CCCCCC2)c(O)c1C=NCc1ccc(F)cc1 | inconclusive [inhibitor, single point] | 
COC(=O)C1C(c2ccccc2)C2C(=O)c3c(OC)cc(OC)cc3O[C@@]12c1ccc(OC)cc1 (stereo partly specified) | inconclusive [inhibitor, single point] | 
Cc1ccc(S(=O)(=O)NCC2CCC(C(=O)N3CCC4(CC3)OCCO4)CC2)cc1 (stereo unspecified) | inconclusive [inhibitor, single point] | 
Cn1cccc1/C=C1\C(=O)NC(=O)N(CCC2=CCCCC2)C1=O | inconclusive [inhibitor, partial curve, poor fit] | 
COP(=O)(OC)c1nc(-c2cccc3ccccc23)oc1NCCc1ccccc1 | inconclusive [inhibitor, partial curve] | 
COc1cc2c(cc1OC)-c1c(OC)c(OC)c(CO)c3c1C(C2)N(C)CC3 (stereo unspecified) | inconclusive [inhibitor, single point] | 
CSc1ccc(CN2CCN(C(=O)COc3cccc(C)c3)CC2)cc1 | inconclusive [inhibitor, partial curve] | 
COc1ccc(N2C(=O)NC(=O)/C(=C\c3ccccc3[N+](=O)[O-])C2=O)cc1 | active: 18.9 µM | 
C=CCN1C(=O)C2(C(C(=O)OCC)=C(N)Oc3ccccc32)c2c1c1ccccc1oc2=O (stereo unspecified) | active: 0.398 µM | 
CCOP(=S)(OCC)Oc1cc(C)oc(=O)c1Cl | active: 1 µM | 
BrC(Br)Br |  | inactive: 0.663%
CCOC(=O)C1=C(C)OC(N)=C(C#N)C12C(=O)N(C)c1ccccc12 (stereo unspecified) |  | inactive: 5.56%
NS(=O)(=O)c1ccc(N=Cc2c(O)n(C3CCCCC3)c(=O)n(C3CCCCC3)c2=O)cc1 |  | inactive: -9.61%
CN(C)c1ccc(C=C(C#N)C#N)cc1 | active: 28.2 µM | 
CCOc1ccccc1NC(=O)N1CCC2(CC1)OCCO2 | inconclusive [inhibitor, single point] | 
c1cc(CN2CCCC3(CCNCC3)C2)ccn1 | inconclusive [inhibitor, partial curve] | 
Cc1c(C=O)c2ccccc2n1Cc1cccc(F)c1 |  | inactive: -12%
CCCCn1c(O)c(C(CC)=NCCN2CCCCC2)c(=O)[nH]c1=O | inconclusive [inhibitor, single point] | 
O=c1c2cc(Cl)cc(Cl)c2nc(CN2CCOCC2)n1-c1ccccc1F | active: 14.1 µM | 
CCCCn1c(O)c(C=NCCCn2ccnc2)c(=O)[nH]c1=O | active: 17.8 µM | 
O=Cc1cn(CCCOc2ccccc2)c2ccccc12 | inconclusive [inhibitor, single point] | 
